For 83 molecules, activation results are on record in PubChem BioAssay AID1346428 (National Center for Advancing Translational Sciences (NCATS), 2018).

Several values for one entry are separate records, joined by “and”; a condition that tells them apart may be missing. Equal values may be shown once. The campaign covered roughly 48,000 compounds. About 1,200 (2.5%) were called active. Inconclusive results (about 2%) are left out.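 Rule for the calls: active = activation of at least 60% and not above a set upper limit (about 1 call in 100 departs from these limits); inconclusive = activation of 40% to 60%, or above that upper limit; inactive = activation under 40%.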 The list shows a part of the results.

The experiment has as its target Probable G-protein coupled receptor 32 (Homo sapiens) (UniProt O75388). In words: qHTS for Agonists of Human Resolvin D1 Receptor DRV1. Note: 0% is about no effect. The note with it: CHO-K1 GPR32 beta-arrestin PathHunter luminescence, 90 min; at 76.9 µM; hits give high values; zero percent set by DMSO-only wells. The procedure, abridged: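 Luminescent readout of beta-Gal complementation quantifies ligand-induced beta-arrestin association with GPR32 in CHO-K1 cells; 90 min compound incubation at 37 °C, detection 1 h at room temperature.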
Sequence of UniProt O75388 (O75388 whole entry, looked up): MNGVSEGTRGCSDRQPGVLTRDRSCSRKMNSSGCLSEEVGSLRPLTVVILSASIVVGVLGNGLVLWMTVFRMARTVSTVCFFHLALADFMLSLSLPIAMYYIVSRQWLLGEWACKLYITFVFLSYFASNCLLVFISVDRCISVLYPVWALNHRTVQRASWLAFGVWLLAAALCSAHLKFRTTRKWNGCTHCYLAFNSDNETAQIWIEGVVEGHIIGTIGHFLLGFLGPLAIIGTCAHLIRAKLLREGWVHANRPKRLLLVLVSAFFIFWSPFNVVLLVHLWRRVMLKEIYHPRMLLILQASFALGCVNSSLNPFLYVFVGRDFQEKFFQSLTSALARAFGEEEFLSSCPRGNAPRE
A general note: qHTS replaces the single test concentration by a dilution series.
On to `O=c1cc(-c2ccc(F)cc2)nc(SCc2nc(-c3ccc(Cl)cc3)no2)[nH]1`, for which the activation is inactive: -0.425%.
Next, `COc1cc(C(=O)NCC(c2ccc(Cl)cc2)N2CCOCC2)cc(OC)c1OC` (stereo not drawn): inactive: 1.97%.
`CCc1ccc(C2C(C(=O)Nc3ccccc3C)=C(C)Nc3nc(SCc4cccc(OC)c4)nn32)cc1` (stereo not drawn): the activation is inactive: 0.908%.
To `CCOC(=O)CC(NC(=O)Cn1nnc(-c2ccccc2F)n1)c1ccccc1Cl` (stereo not drawn) belongs inactive: 3.95%; to `Cc1ccc(N2CCN(C(=O)c3cn(C)c4ccc(S(=O)(=O)N(C)C)cc4c3=O)CC2C)cc1` (stereo not drawn), inactive: -4.26%.
On to `CCS(=O)(=O)c1ncc(N(Cc2ccco2)Cc2ccccc2F)c(C(=O)Nc2cccc(Cl)c2)n1`, for which the activation is inactive: -2.24%.
To `O=C(Cn1c(=O)nc(-c2ccccc2)c2ccccc21)NCc1ccccc1Cl` belongs inactive: -8.94%; to `CC(=O)c1ccc(NC(=O)CSc2nc(=O)n(Cc3ccncc3)c3c2CCC3)cc1`, inactive: -2.5%.
Regarding `CCOc1ccccc1C(=O)Nc1cc2c(cc1N1CCOCC1)n(C)c(=O)n2C`, the activation was inactive: -22%.
Next, `Cc1ccc(CCNC(=O)c2ccc3c(c2)c(C)c(C)n3Cc2ccccc2)cc1`: inactive: -19.7%; `CCc1nc2c(cnn2-c2ccc(Cl)cc2)c(=O)n1-c1ccc(OC)c(Cl)c1`: inactive: 8.45%; `Cc1ccc(OCC(=O)Nc2cc(-c3cccc(C)c3)nn2-c2ccccc2)cc1`: inactive: -20%.
Next, `CCOc1ccc(N2CC(c3nc4ccccc4n3Cc3cccc(C)c3)CC2=O)cc1` (stereo not drawn): inactive: -24.2%.
Next, `O=[N+]([O-])c1cc(-c2nc(-c3ccccc3)no2)ccc1NCCc1ccccc1`: inactive: 5.81%.
Regarding `COc1ccc(-n2c(=O)c3sc4ccccc4c3n(CC(=O)NCc3ccccc3)c2=O)cc1`, the activation was inactive: 8.42%.
Next, `Cc1ccccc1CNC(=O)c1ccc(CS(=O)Cc2ccc(Cl)cc2)o1` (stereo not drawn): inactive: -26.4%.
As for `NC(=S)N/N=C/c1cccnc1`, the activation is inactive: 29.1%.
As for `Cc1ccc2nc(N(Cc3cccnc3)C(=O)c3cccs3)sc2c1`, the activation was inactive: -8.54%.
To `CCCn1c(CCC(=O)Nc2cccc(CC)c2)nc2cccnc21` belongs inactive: -10.7%; to `CCn1c(CC2C(=O)N(C)c3ccccc32)nc2ccccc2c1=O` (stereo not drawn), inactive: -1.21%; to `COc1ccc(Cl)cc1NC(=O)CSc1nc(-c2ccccc2)c2ccccc2n1`, inactive: -14.7%.
`O=C(Nc1cccc(F)c1)[C@@H](c1ccccc1)N1Cc2ccccc2C1=O`: the activation was inactive: -7.51%.
In the case of `Cc1nn(C(C)(C)C)c(OC(=O)c2cccc(F)c2)c1Sc1ccccc1`, the activation is inactive: 6.1%.
Next, `CC(O)C(=O)O` (stereo not drawn): inactive: 0.163%; `CCCSc1nnc2n(-c3ccc(OC)cc3)c(=O)c3c4c(sc3n12)COC(C(C)C)C4` (stereo not drawn): inactive: 21%.
Next, `CC(C)CC(C(=O)NCCc1ccccc1)N1Cc2ccccc2C1=O` (stereo not drawn): inactive: -10%; `CCc1ccc(NC(=O)CCCn2nc(C)c3c(C)n(-c4ccccc4)nc3c2=O)cc1`: inactive: -5.04%.
In the case of `CCOc1ccc(CNC(=O)C2CCN(Cc3cc4ccccc4n3Cc3ccccc3C)CC2)cc1`, the activation was inactive: -24.7%.
To `CN(C)CCOC(c1ccccc1)c1ccccc1` belongs inactive: 12% and inactive: 8.95%.
Next, `Cc1ccc(NC(=O)C(=O)NCCCN2CCOCC2)cc1C`: inactive: -6.07%; `Cc1cccc(NC(=O)C2(C)Cc3ccccc3C(=O)O2)c1` (stereo not drawn): inactive: -5.12%; `CC(=O)Nc1ccc2nc(SCCOc3ccccc3)sc2c1`: active: 118%.
Next, `CCc1ccc(CN(Cc2ccco2)C(=O)COc2ccc(Cl)cc2C)cc1`: inactive: -23.6%; `Cc1c(CNC2CCCCCC2)c(C(=O)O)c(C)n1Cc1ccc(F)cc1`: inactive: -0.777%; `COc1ccccc1N1CCN(C(=O)Cn2c(=O)n3nc(-c4cccc(C)c4)nc3c3ccccc32)CC1`: inactive: -0.38%.
Turning to `COc1ccc(CCNC(=O)c2c(C)nn(-c3ccc(F)cc3)c2-n2cccc2)c(OC)c1OC`, the activation is inactive: 11.6%.
To `Cc1ccc(Nc2sc(C(=O)c3ccccc3)c(N)c2S(=O)(=O)c2ccccc2)c(C)c1` belongs inactive: -14.4%; to `COc1ccc(-n2ncc(C(=O)Nc3ccc4c(c3)OCCO4)c2C2CCN(C(=O)OC(C)(C)C)CC2)cc1`, inactive: 3.29%.
Next, `CCOc1ccc(CNC(=O)C2CCCN(S(=O)(=O)N(CC)c3ccc(OCC)cc3)C2)cc1` (stereo not drawn): inactive: -18.3%.
Next, `CCCSc1ncc(Cl)c(C(=O)Nc2c(C(=O)c3ccc(F)cc3)oc3ccccc23)n1`: inactive: -3.39%.
Take `O=C(NCCc1ccccc1)c1ccc2c(c1)CCN2S(=O)(=O)c1ccccc1`: the activation is inactive: -10.6%.
Next, `Cc1ccc(S(=O)(=O)N2CCC(C(=O)Nc3ccc(Oc4ccccc4)cc3)CC2)cc1`: inactive: 10.7%; `CCN(C(=O)Cn1nc(Cc2ccncc2)c2ccccc2c1=O)c1cccc(C(F)(F)F)c1`: inactive: -23.4%.
Next, `CC(C)Cn1c(=O)c2ccccc2n2c(CCC(=O)Nc3ccc(F)c(F)c3)nnc12`: inactive: 1.53%.
To `CCOC(=O)c1c(NC(=O)C(C)Oc2ccc(Cl)c(C)c2)sc2c1CCCC2` (stereo not drawn) belongs inactive: -16.2%; to `Cc1nn2c(=O)cc(COC(=O)c3ccc(NC(=O)c4cccs4)cc3)nc2s1`, inactive: 7.62%.
As to `O=C(Cn1cc(S(=O)(=O)Cc2ccccc2F)c2ccccc21)NCc1ccccc1Cl`, the activation is inactive: -7.41%.
To `Cc1cc(C)cc(NC(=O)CN2C(=O)CCc3cc(S(=O)(=O)N4CCCCC4)ccc32)c1` belongs inactive: -28.4%.
Next, `CC(C)CSc1ccccc1NC(=O)c1sc2nc(-c3ccncc3)ccc2c1N`: inactive: -10.9%; `CCN(c1cc(C)cc(C)c1)S(=O)(=O)c1nnc(NC(=O)c2ccco2)s1`: inactive: 9.44%.
Next, `COc1ccc(NC(=O)CCN2CCN(CCO)CC2)cc1`: inactive: -1.94%; `COc1ccc2[nH]cc(CCNC(=O)c3cnn(-c4ccccc4Cl)c3C3CCN(C(=O)OC(C)(C)C)CC3)c2c1`: inactive: -23.4%; `Cc1nc2c(C(=O)NCCc3ccccc3)c[nH]n2c(=O)c1Cc1ccc(F)cc1Cl`: inactive: 39.9%.
As to `Cc1ccc(NC(=O)Cn2nnc(-c3nc(-c4ccc(Cl)cc4)no3)c2N)cc1C`, the activation was inactive: 13.2%.
As for `Cc1cccc(N2CCN(C(=O)c3ccc(NC(=O)c4nsc5ccccc45)cc3)CC2)c1C`, the activation is inactive: -12.7%.
Next, `CCOc1ccc(C(=O)Nc2ccc(-c3nc4ccccc4s3)c(C)c2)cc1OCC`: inactive: 3.63%.
Next, `O=C(O)CCCCC(=O)O`: inactive: 16.4%; `O=C1c2[nH]nc(-c3ccccc3O)c2C(c2ccc(Cl)cc2)N1CCc1ccccc1` (stereo not drawn): inactive: 49.4%.
To `CCOCN(C(=O)Cn1c(CC(C)C)nc2ccccc21)c1c(C)cccc1CC` belongs inactive: 33.7%.
As for `CCOc1ccccc1Nc1ncnc2c1c(-c1ccccc1)cn2-c1ccc(OC)cc1`, the activation was inactive: -40.2%.
To `CC(C)c1ccc(NC(=O)C(NS(=O)(=O)c2ccc3c(c2)CCC(=O)N3)c2ccccc2)cc1` (stereo not drawn) belongs inactive: 0.708%.
To `Cn1c(=O)cc(OCC(=O)N2CCN(c3ccc(F)cc3)CC2)c2ccccc21` belongs inactive: -24%.
Next, `COc1cc(OC)cc(-c2cc3nc(C)c(CCC(=O)Nc4ccc(F)c(Cl)c4)c(C)n3n2)c1`: inactive: -11.8%; `Cc1c(Cl)cccc1NC(=O)C(C)N(c1ccccc1)S(C)(=O)=O` (stereo not drawn): inactive: 4.29%.
With `CCc1ccc(NC(=O)N(Cc2cn(CC)c3ccccc23)C2CCCCC2)cc1`, the activation is inactive: -4.03%.
`Cc1cc(C)cc(NC(=O)c2ncn(-c3ccccc3)n2)c1`: the activation was inactive: 42.4%.
Next, `CCc1ccc(NC(=O)COCc2cc(-c3ccc(F)cc3)on2)cc1`: inactive: -4.54%; `O=C(CSCc1cnn(-c2ccccc2)c1-n1cccc1)NCc1ccccc1Br`: inactive: -19.6%.
Next, `O=S(=O)(c1ccccc1)c1nc(-c2ccccc2)oc1N1CCN(c2cccc(Cl)c2)CC1`: inactive: -19.9%.
As to `Cc1ccc(-c2cn3cccnc3n2)cc1NC(=O)Cc1ccccc1`, the activation was inactive: -10.9%.
Next, `CC(=O)N1c2ccc(S(=O)(=O)NCC3CCC(C(=O)Nc4ccc(F)cc4)CC3)cc2CC1C` (stereo not drawn): active: 68%; `CCOC(=O)c1c(C)[nH]c(C)c1S(=O)(=O)N1CCN(c2ccc(Cl)cc2)CC1`: active: 68%; `COc1ccc(Cc2nc3ccc(C(=O)NCCc4ccccc4)cc3o2)cc1`: inactive: -23.9%.
To `CCc1ccccc1-n1c2c(cc(-c3nc(-c4ccc(Cl)cc4)cs3)c1=O)C(=O)CC(C)(C)C2` belongs inactive: 3.85%; to `COc1ccc(CNC(=O)c2ccc3c(c2)CCN3S(=O)(=O)c2ccc(Cl)cc2)cc1`, inactive: -6.93%.
For the molecule `Cc1ccc(-c2nn3c(=O)cc(CN4CCN(S(=O)(=O)c5ccc(Cl)cc5)CC4)nc3s2)cc1`, the activation is inactive: -3.42%.
Next, `COc1cccc(NC(=O)C2CCN(c3cc(C)nc4c(-c5ccc(Cl)cc5)c(C)nn34)CC2)c1`: inactive: -2.14%; `O=C(COc1ccc(F)cc1)NC1CC(=O)N(c2ccc3c(c2)OCCO3)C1` (stereo not drawn): active: 115%.
Next, `COc1cc2nc(SCC(=O)Nc3cccc(C)c3)n3nc(CCn4c(C)nc5ccccc54)nc3c2cc1OC`: inactive: -5.97%.
To `CC(NC(=O)C1=Cc2ccccc2OC1)c1ccccc1` (stereo not drawn) belongs inactive: 1.33%; to `CC(=O)Nc1ccc(NC(=O)Cn2c(=O)ccc3cc(S(=O)(=O)N4CCC(C)CC4)ccc32)cc1`, inactive: -21.4%; to `COC[C@@H](c1ccc(C(F)(F)F)cc1)N1CCN(C2(C)CCN(C(=O)c3c(C)ncnc3C)CC2)C[C@H]1C`, inactive: -5.91%.
`CCOc1ccc(OCC)c(NS(=O)(=O)c2ccc3[nH]c(=O)ccc3c2)c1`: the activation is inactive: -1.71%.
